Data published in ChEMBL document CHEMBL5303300, “EUbOPEN Chemogenomics Library - Multiplex” (2023).
For part of its entries the source gives two or more results. This list holds those alone. There may be further records. The values listed for one entry are repeats in other runs, samples, wells, individuals or studies.

Legend:
Fibroblast = assay: Multiplex assay against human fibroblast; assay type: toxicity, cell-based; conditions: number of replicates 2
Summary of the method: (§1)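 Cells stained live at seeding with Hoechst33342, BioTracker Green Microtubule Cytoskeleton Dye, MitoTracker Red and Annexin V Alexa Fluor 680 were imaged on a CQ1 microscope at 37°C and 5% CO2 after compound addition. Their classification by CellPathfinder machine-learning gating ran from Hoechst high-intensity objects versus normal cells, to healthy, pyknosed or fragmented nuclei among normal cells, to mitotic or apoptotic among pyknosed cells. Tubulin, mitochondrial-mass and membrane-permeability phenotypes are per cents of healthy-nucleus cells.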

U2OS = assay: Multiplex assay against U2OS; assay type: toxicity, cell-based; conditions: human, number of replicates 2; summary of the method: as §1
[1] = 48 h, 1 µM, compound concentration 1 uM
[2] = 12 h, 1 µM, compound concentration 1 uM
[3] = 12 h, 10 µM, compound concentration 10 uM
[4] = 24 h, 1 µM, compound concentration 1 uM
[5] = 24 h, 10 µM, compound concentration 10 uM
[6] = 48 h, 10 µM, compound concentration 10 uM

SMILES | Population Mitotic Cells (%) (U2OS; [2]) | Population Fragmented Nuclei (%) (U2OS; [3]) | Total Cell Count (U2OS; [3]) | Population Fragmented Nuclei (%) (U2OS; [4]) | Population Fragmented Nuclei (%) (U2OS; [5]) | Total Cell Count (U2OS; [5]) | Total Cell Count (U2OS; [1]) | Total Cell Count (U2OS; [6]) | Total Cell Count (U2OS; [2]) | Total Cell Count (U2OS; [4]) | Population Mitotic Cells (%) (U2OS; [5]) | also measured
O=C(Nc1ccnc(NC(=O)C2CC2)c1)c1c(Cl)cccc1Cl | 66% and 15% | 36% and 6% | 19 and 183 | 80% and 6% | 48% and 7% | 31 and 167 | 117 and 366 | 38 and 170 | – | – | – | Population Tubulin-Different-Phenotype (%) (Fibroblast; [1]): 21% and 6%; Population Fragmented Nuclei (%) (U2OS; [2]): 78% and 4%; Population Healthy Nuclei (%) (U2OS; [2]): 19% and 82%; Population Pyknosed Nuclei (%) (U2OS; [2]): 2% and 13%; Population Membrane Permeable-Phenotype (%) (U2OS; [3]): 14% and 2%; Population Healthy Nuclei (%) (U2OS; [4]): 16% and 81%; Population Mitotic Cells (%) (U2OS; [4]): 40% and 9%; Population Membrane Permeable-Phenotype (%) (U2OS; [5]): 30% and 4%; Population Fragmented Nuclei (%) (U2OS; [1]): 63% and 7%; Population Fragmented Nuclei (%) (U2OS; [6]): 60% and 15%; Population Healthy Nuclei (%) (U2OS; [6]): 15% and 48%
O=C1NC(=O)C(c2ccccc2[N+](=O)[O-])=C1Nc1ccc(O)c(Cl)c1 | 0% and 61% | – | – | 17% and 2% | – | – | – | – | – | – | – | Population Apoptotic (%) (Fibroblast; [2]): 12% and 46%; Population Mitotic Cells (%) (U2OS; [3]): 20% and 62%
Cn1cc(-c2ccc(-c3cncc(Cl)c3N3CCC4(CCNC4=O)CC3)cc2)cn1 | – | 28% and 6% | 42 and 140 | 3% and 27% | 19% and 5% | 42 and 174 | 615 and 58 | 216 and 45 | 261 and 42 | 339 and 43 | 11% and 39% | Population Membrane Permeable-Phenotype (%) (Fibroblast; [1]): 28% and 5%; Population Fragmented Nuclei (%) (U2OS; [2]): 4% and 28%; Population Mitotic Cells (%) (U2OS; [3]): 0% and 50%; Population Fragmented Nuclei (%) (U2OS; [1]): 4% and 27%; Population Mitotic Cells (%) (U2OS; [1]): 29% and 0%; Population Mitochondria Different-Phenotype (%) (U2OS; [6]): 20% and 4%
C=CC(=O)Nc1cccc(C)c1Nc1ncc2cc(-c3c(Cl)c(OC)cc(OC)c3Cl)ccc2n1 | – | 21% and 5% | 33 and 163 | 18% and 3% | – | 35 and 168 | 101 and 579 | 29 and 152 | 54 and 243 | 78 and 295 | – | Population Hoechst High Intensity Objects (%) (Fibroblast; [3]): 28% and 0%; Population Hoechst High Intensity Objects (%) (Fibroblast; [5]): 39% and 0%; Population Hoechst High Intensity Objects (%) (Fibroblast; [6]): 47% and 0%; Population Pyknosed Nuclei (%) (U2OS; [2]): 20% and 5%; Population Mitotic Cells (%) (U2OS; [6]): 22% and 6%
NC(=O)c1ccc(-c2nc(-c3ccc4c(c3)OCCO4)c(-c3ccccn3)[nH]2)cc1 | 60% and 14% | 7% and 27% | 197 and 36 | – | 3% and 31% | 254 and 47 | 164 and 508 | 74 and 357 | – | – | 16% and 100% | Population Tubulin-Different-Phenotype (%) (Fibroblast; [3]): 16% and 5%; Population Pyknosed Nuclei (%) (Fibroblast; [4]): 6% and 20%; Population Apoptotic (%) (U2OS; [5]): 84% and 0%
CC(C)c1cc(-c2ccc(F)c3ccccc23)nc(N)n1 | – | 31% and 4% | 19 and 229 | – | 35% and 5% | 31 and 339 | 68 and 782 | 32 and 689 | 245 and 33 | 344 and 50 | 0% and 34% | Population Mitotic Cells (%) (Fibroblast; [6]): 0% and 45%; Population Membrane Permeable-Phenotype (%) (U2OS; [3]): 20% and 4%; Population Mitochondria Different-Phenotype (%) (U2OS; [3]): 20% and 1%; Population Apoptotic (%) (U2OS; [4]): 52% and 0%; Population Apoptotic (%) (U2OS; [1]): 0% and 40%; Population Fragmented Nuclei (%) (U2OS; [6]): 18% and 4%; Population Membrane Permeable-Phenotype (%) (U2OS; [6]): 15% and 2%; Population Mitochondria Different-Phenotype (%) (U2OS; [6]): 15% and 1%; Population Pyknosed Nuclei (%) (U2OS; [6]): 18% and 4%
c1ccc2c(-c3coc4cc(-c5ccc(N6CCNCC6)cc5)cnc34)ccnc2c1 | – | – | – | – | – | – | 66 and 331 | – | 23 and 139 | 36 and 194 | – | Population Healthy Nuclei (%) (Fibroblast; [3]): 31% and 1%; Population Healthy Nuclei (%) (Fibroblast; [5]): 6% and 20%; Population Mitochondria Different-Phenotype (%) (Fibroblast; [5]): 0% and 30%; Population Apoptotic (%) (U2OS; [2]): 0% and 73%
